In ChEMBL document CHEMBL4888484, “Replenishing the malaria drug discovery pipeline: Screening and hit evaluation of the MMV Hit Generation Library 1 (HGL1) against asexual blood stage Plasmodium falciparum ,using a nano luciferase reporter read-out” (2022):
The whole screen tested about 150,000 compounds, of which about 540 (0.36%) showed an effect of 50% or more. This is one part of the list.

What follows are molecules tested on Plasmodium falciparum (assay: Primary screen in NF54 nanoGlo assay, in single point, at 2uM, 72h; a lower Z score goes with more inhibition). Settings: timepoint 72 hour.
Type: functional, Erythrocyte
With `Cc1cc(N)n(CC(=O)N[C@H]2COCC[C@@H]2Oc2ccccn2)n1` the “% Inhibition” value was 0% and the Z score was -0.06. `O=C(c1ccc(-c2ccc(O)cc2F)cc1)N1CCN([C@H]2CCNC2)CC1` was tested, and the “% Inhibition” value was -14% and the Z score was 1.57. In the case of `CN1CCOCC1C(=O)OC(C1CC1)C(F)(F)F` (stereo not drawn), the “% Inhibition” value was 5% and the Z score was -0.5. `O=C(NCc1nccs1)N1CCN(S(=O)(=O)c2ccccc2)CC1` was tested, and the “% Inhibition” value was -10% and the Z score was 1.32. In the case of `O=c1c(-c2ccccc2)c(O)cc(-c2ccncc2)n1-c1ccc(Cl)cc1`, the “% Inhibition” value was -14% and the Z score was 1.61. For `O=c1c2cc3c(nc2ncn1CCN1CCOCC1)CCCC3`, the “% Inhibition” value was -6% and the Z score was 0.83. `Cc1noc(CN2N=C(C(=O)N3CCCCC3)S(=O)(=O)c3ccccc32)n1` was tested, and the “% Inhibition” value was -3% and the Z score was 0.4. With `CC1(C)CN(Cc2ncccn2)CC[C@]1(C)O` the “% Inhibition” value was -12% and the Z score was 2.22. With `Cn1nc(C2CC2)nc1COc1cccn2ccnc12` the “% Inhibition” value was 17% and the Z score was -2.18. `CCn1ccc2ccc(CCC(=O)NCC3CC3)cc21` was tested, and the “% Inhibition” value was 8% and the Z score was -0.86. In the case of `N#Cc1ccccc1NC(=O)c1cc(S(=O)(=O)N2CCCCC2)cs1`, the “% Inhibition” value was -28% and the Z score was 2.45. In the case of `OB(O)c1ccc(-n2nccc2C2CC2)cc1`, the “% Inhibition” value was 25% and the Z score was -2.84. For `C[C@@H]1CN(C(=O)NCc2ccc(F)cc2)C[C@]1(C)O`, the “% Inhibition” value was -2% and the Z score was 0.4. In the case of `COc1nc(-c2ccc3c(c2)OCO3)n(-c2ccc(NC(=O)c3ccc(F)cc3)cc2)n1`, the “% Inhibition” value was -12% and the Z score was 1.4. In the case of `Cc1c(-c2nnc(C(=O)N[C@@H](C)Cc3ccco3)o2)oc2c(C)cccc12`, the “% Inhibition” value was 5% and the Z score was -0.59. `O=C(c1cc[nH]n1)N1CC[C@H](OCCCc2ccccc2)C1` was tested, and the “% Inhibition” value was 10% and the Z score was -1.83. For `O=C(CCCn1cnnn1)Nc1nc2ccc(F)cc2s1`, the “% Inhibition” value was -14% and the Z score was 1.69. `CN1CCN(C(=O)CC[C@H]2CCCN(C(=O)c3cc(C#N)cn3C)C2)CC1` was tested, and the “% Inhibition” value was -4% and the Z score was 0.66. `FC(F)(F)COc1ccc(OCc2noc3c2CCCC3)cc1` was tested, and the “% Inhibition” value was -6% and the Z score was 1.02. For `COc1ccc(CN2CC[C@]3(OC)CC[C@H](Oc4ccccn4)C[C@H]23)c(F)c1`, the “% Inhibition” value was -4% and the Z score was 0.67. `CCN1CCCN(C(=O)c2ccc(OC)cc2)CC12CCOCC2` was tested, and the “% Inhibition” value was -2% and the Z score was 0.19. With `OCC1(O)CN(c2nc(C(F)F)nc3ccc(Cl)cc23)C1` the “% Inhibition” value was -8% and the Z score was 0.9. With `CCc1ccc(OCCN(C)C(=O)c2ncccc2C)cc1` the “% Inhibition” value was -6% and the Z score was 0.76. In the case of `O=C(NCCc1nc(-c2ccccc2)no1)c1cn(Cc2cccc3ccccc23)nn1`, the “% Inhibition” value was 6% and the Z score was -0.83. For `COCCc1nc(-c2ccc(N3CCN(C)CC3)cc2)n(C(C)(C)C)n1`, the “% Inhibition” value was 18% and the Z score was -2.39. `C[C@H]1CCN(c2ccc(NC(=O)NCC3(CO)CC3)cc2)C1` was tested, and the “% Inhibition” value was -22% and the Z score was 2.25. In the case of `Cc1ccc(NC(=O)c2ccc(=O)n(CCC(=O)N3CCC(C)CC3)n2)cc1C`, the “% Inhibition” value was -10% and the Z score was 1.38. In the case of `O=C(c1cccc(Br)c1)N1CCC(n2nccn2)CC1`, the “% Inhibition” value was -6% and the Z score was 0.72. With `CO[C@H]1C[C@@H](CO)N(Cc2nnc(C)s2)C1` the “% Inhibition” value was 2% and the Z score was -0.23. `Cc1cc(C)c(S(=O)(=O)N2CCc3c(c(CN(C(=O)c4ccc(F)cc4)c4ccccc4)nn3C)C2)c(C)c1` was tested, and the “% Inhibition” value was -9% and the Z score was 0.78. With `Fc1ccc(CNc2ccc(-c3nc(-c4ccccc4)no3)nn2)cc1` the “% Inhibition” value was 2% and the Z score was -0.22. For `Cc1ccc(NC(=NC(=O)C(Cl)(Cl)Cl)Nc2ccc(C)cc2)cc1`, the “% Inhibition” value was -9% and the Z score was 1.09. For `CC(C)COc1ccc(C(C)(C)C(=O)N2C[C@H]3CNC[C@H]3C2)cc1`, the “% Inhibition” value was 3% and the Z score was -0.5. For `CCc1ccc(CNC[C@]2(c3cccc(F)c3)CCOC2)nc1`, the “% Inhibition” value was 4% and the Z score was -0.55. With `COc1ccc2c(c1)N1CCN(Cc3ccc(F)cc3)CC1C(C(=O)NCc1ccncc1)C2` (stereo not drawn) the “% Inhibition” value was 5% and the Z score was -0.67. In the case of `Cc1ncccc1OCCO[C@@H]1CCCCO1`, the “% Inhibition” value was -16% and the Z score was 1.84. In the case of `O=C(Nc1cccnc1)c1ccnc(OCC2CC2)c1`, the “% Inhibition” value was -30% and the Z score was 5.61. With `O=C(NCCNc1cc(N2CCCC2)cnn1)c1cccc(Cl)c1` the “% Inhibition” value was -11% and the Z score was 1.71. With `C=CCN(CC=C)C(=O)Cn1c(-c2cccc(OC)c2)csc1=O` the “% Inhibition” value was 1% and the Z score was -0.15. For `COc1ccc(Nc2nn3c(c2NC(=O)c2ccc(C)cc2)N=C(C)CC3=O)cc1`, the “% Inhibition” value was -9% and the Z score was 1.54. With `Cc1ccc(Cc2ccccc2C(=O)N2CCC[C@H]2CO)cc1F` the “% Inhibition” value was -18% and the Z score was 1.77. `CCn1c[n+](CC(=O)c2ccc(Cl)cc2Cl)cn1` was tested, and the “% Inhibition” value was -10% and the Z score was 0.89. For `C=CCCC(=O)N[C@@H](C)Cc1ccoc1`, the “% Inhibition” value was 0% and the Z score was -0.05. For `O=C(c1ccccc1C(F)(F)F)N1C[C@@H]2C[C@H]1C(=O)N2c1ccccc1Cl`, the “% Inhibition” value was -9% and the Z score was 1.78.
